Our source for the self-cleavage values is the RNAGym collection of RNA variant scans (doi:10.7554/elife.90254).

Read counts are not given, so values of variants with three or more changes are uncertain.

To fix the notation:
B1: LINE1-mini (parent)
chain: GGCAGAGCUCAACACAGCGUGGCAAAGUGGCUGUGGCUAGACUGCC

Variants of B1 are the subject of this data set. Description: self-cleavage, relative activity (ratio to wild type); higher = more cleavage; in vitro, sequencing; the parent is a self-cleaving ribozyme.
Turning to C13A A14U C23A A25C U32G G33U, the self-cleavage stood at 0.08.

Consider C13A A14C A39G, for which the self-cleavage turned out to be 0.02.

As for A12U G17C G29U C31A C46U, the self-cleavage was 0.01.

As to A12U C13A U34G U43C, the self-cleavage was 0.

Regarding A12U U28C A39C C45A, the self-cleavage worked out at 0.03.

Take A12U G17A U28G: the self-cleavage was found to be 0.01.

For A12U G36A A41G, the self-cleavage was 0.01.

For A12U U20C C23U, the self-cleavage worked out at 0.2.

As to A12U G17U C31U, the self-cleavage is 0.15.

For the variant A12U C15A G21U, the self-cleavage was 0.07.

Consider A12U C13A G44A, for which the self-cleavage came to 0.05.

With A12U G21C C46A, the self-cleavage amounted to 0.82.

Turning to C13A C37A U43A, the self-cleavage is 0.01.

In the case of A12U C18A C23A G40A, the self-cleavage was found to be 0.01.

For C13A A16U U20A G35U U38C, the self-cleavage came out at 0.04.

For the variant C13A A14U G22U G40A, the self-cleavage was 0.03.

In the case of A12U G21U G27U, the self-cleavage was determined as 0.06.

Consider A12U G21U G27A, for which the self-cleavage is 0.49.

For the variant A12U G21C G22U, the self-cleavage was determined as 0.

With A12U C15A C18A G19U G27C G40A G44A, the self-cleavage is 0.01.

Turning to A12U A16U G17A G19U A24G A26C, the self-cleavage turned out to be 0.05.

Consider C13A A25C G35A A39U, for which the self-cleavage came to 0.02.

Consider C13A A26C C45U, for which the self-cleavage worked out at 0.1.

In the case of A12U U20A G44U, the self-cleavage came out at 0.09.

Regarding A12U U20G C37G, the self-cleavage is 0.01.

With A12U C13A A14C, the self-cleavage turned out to be 0.13.

In the case of C13A A16U G33C U34A G35A, the self-cleavage worked out at 0.02.

For the variant A12U U43G C45G, the self-cleavage was found to be 0.01.

In the case of C13A C15A G17U C18U U28C C45A, the self-cleavage was found to be 0.04.

In the case of C13A C18A G30C, the self-cleavage was determined as 0.02.

With A12U U32C U38A, the self-cleavage came to 0.04.

As to A12U C23A C31G U34C C45A, the self-cleavage was 0.01.

For A12U G22C G27C A39G, the self-cleavage turned out to be 0.02.

With A12U U20G C45A, the self-cleavage came to 0.02.

As for C13A A41G C45A, the self-cleavage stood at 0.03.

For the variant A12U G27A U34A, the self-cleavage came out at 0.05.

Consider A12U G19U C23A C46U, for which the self-cleavage turned out to be 0.16.

As for C13A C18A C31G, the self-cleavage turned out to be 0.07.

Take A12U G17A G27C G30A C31U U38A C45G: the self-cleavage turned out to be 0.03.

In the case of C13A C18A G36A U43C, the self-cleavage was 0.04.

On to A12U C23A G40U C45G, for which the self-cleavage is 0.09.

On to A12U A25C G44C, for which the self-cleavage was determined as 0.19.

For the variant A12U G30U G33U, the self-cleavage is 0.02.

Turning to C13A A14G G22U, the self-cleavage was found to be 0.08.

Consider A12U C23U G36U, for which the self-cleavage amounted to 0.05.

As to A12U C23U G36C, the self-cleavage is 0.01.

With A12U C15U G19U G21C G30U, the self-cleavage was determined as 0.2.

On to A12U C15A A26C C31G, for which the self-cleavage was determined as 0.12.

C13A G17A C23U G27A: the self-cleavage amounted to 0.06.

For the variant A12U G22U U43A, the self-cleavage worked out at 0.84.

As to C13A A26C U34C G36U C42A, the self-cleavage turned out to be 0.12.

As to C13A A14C C18U G21U A26U G29C, the self-cleavage turned out to be 0.05.

Take A12U A25G C37U: the self-cleavage amounted to 0.

Take A12U C23A C42A U43C: the self-cleavage came out at 0.05.

With A12U C23G A39C, the self-cleavage is 0.03.

As to A12U G17U U34C C42U, the self-cleavage was determined as 0.05.

As to C13A C23A A24C A41C, the self-cleavage worked out at 0.

On to A12U C13U G17U G19U C37A, for which the self-cleavage was determined as 0.06.

With C13A A25C U32G U34C U43C, the self-cleavage is 0.02.

Consider C13A A14C C45A, for which the self-cleavage was 0.01.

Take C13A C15A U20C A26U: the self-cleavage came to 0.01.

For C13A C15U G22A C23A C37A, the self-cleavage was determined as 0.19.

With C13A C18A U20G G22C C23A A26U G27U U28G G30C, the self-cleavage was determined as 0.01.

Consider A12U G27U G33U U34G, for which the self-cleavage was 0.18.

As to C13A C37U C42A, the self-cleavage amounted to 0.28.

With C13A A16G U32G, the self-cleavage worked out at 0.2.

Take A12U G19U C42U: the self-cleavage turned out to be 0.17.

For C13A C23G G33C C42A, the self-cleavage was found to be 0.04.

A12U C18U G21U C31A: the self-cleavage is 0.01.

For the variant C13A G19A A25C A26G, the self-cleavage is 0.08.

Turning to A12U G17A C37A, the self-cleavage came to 0.06.

For the variant A12U G22U G30U C46U, the self-cleavage stood at 0.35.

In the case of C13A C18U U43G C45U, the self-cleavage was determined as 0.27.

Regarding A12U U20G C42A, the self-cleavage turned out to be 0.03.

As to C13A C15G G17C U20C C42A, the self-cleavage was 0.01.

On to C13A A16C C18A, for which the self-cleavage came to 0.02.

For C13A A25U U28C G29U A41C, the self-cleavage was 0.02.

Turning to A12U C23A G30A G35C G40C, the self-cleavage is 0.02.

For A12U G21U G27U U43G C46U, the self-cleavage turned out to be 0.01.

A12U U28A U32G A39C A41U: the self-cleavage was found to be 0.01.

A12U U20A G30U: the self-cleavage amounted to 0.2.

For A12U C13A A25G, the self-cleavage is 0.08.

As for C13A C18A U38G, the self-cleavage turned out to be 0.01.

C13A A25G G44A: the self-cleavage stood at 0.07.

Take C13A A14C C37A G44U: the self-cleavage turned out to be 0.09.

For A12U U32A U34A, the self-cleavage amounted to 0.02.

For C13A A14U C15U C37U C45A, the self-cleavage worked out at 0.04.

On to A12U C13A G27A U32G, for which the self-cleavage stood at 0.03.

On to C13A A14U G22A C23G G29A, for which the self-cleavage came out at 0.09.

Regarding A12U G33C U43C C45A, the self-cleavage stood at 0.01.

As to A12U G22A G36U, the self-cleavage stood at 0.24.

For the variant C13A C15A U28G G29C G36C U38C C46U, the self-cleavage stood at 0.03.

Consider C13A A26C U34C, for which the self-cleavage was found to be 0.03.

As for A12U A25G G27A U28A, the self-cleavage was 0.11.

Take A12U A26U G30C: the self-cleavage was 0.08.

On to C13A C18A A25U G27U C31A, for which the self-cleavage stood at 0.02.

On to A12U U20A G36A A41G, for which the self-cleavage was determined as 0.05.

As to C13A C18A C46A, the self-cleavage was 0.02.

Consider A12U C13U U20G G29A, for which the self-cleavage amounted to 0.16.

As for C13A A39C U43G C45U, the self-cleavage was found to be 0.1.

With A12U C15G G21U G27A, the self-cleavage was determined as 0.04.

Regarding A12U G35A C45U, the self-cleavage was determined as 0.36.

For the variant A12U C18A G29C C37A C46U, the self-cleavage was found to be 0.

As to C13A A25U G36C U38C C46A, the self-cleavage amounted to 0.01.

On to C13A A24G A25G U43A, for which the self-cleavage stood at 0.05.

For A12U G17C C45G, the self-cleavage was 0.02.

Take C13A A26U U28G C31G: the self-cleavage amounted to 0.03.

On to A12U G17U G19A G21U G33A, for which the self-cleavage turned out to be 0.09.

Consider C13A A39U G44U, for which the self-cleavage came to 0.1.

Turning to C13A A25C A41G, the self-cleavage came out at 0.03.

In the case of C13A G19A A24G, the self-cleavage stood at 0.16.

As for C13A C23A U28A U34G, the self-cleavage turned out to be 0.01.

Consider A12U A25C C46A, for which the self-cleavage is 0.05.

With A12U G19A U28G, the self-cleavage is 0.17.

Regarding A12U G29U C45A, the self-cleavage amounted to 0.04.

As for C13A G17A U32A U43A, the self-cleavage was 0.01.

For the variant C13A A24G G35U G40A, the self-cleavage was 0.09.

For A12U C13U C15G A39C, the self-cleavage was found to be 0.05.

For the variant A12U G17A A39U, the self-cleavage worked out at 0.13.

As for A12U G19C U34A A39C U43A, the self-cleavage was 0.03.

Turning to A12U C13G A14U G17C C18U, the self-cleavage worked out at 0.02.

In the case of A12U G40A C45A C46U, the self-cleavage worked out at 0.02.

For C13A C15G G29U G33C, the self-cleavage is 0.04.

C13A G17A U32C U43A: the self-cleavage turned out to be 0.08.

In the case of A12U C23U U32C G36A C37A, the self-cleavage was found to be 0.01.

Consider A12U G19A U32A, for which the self-cleavage turned out to be 0.02.

For A12U A26U U28C U32C, the self-cleavage was 0.05.

A12U G19C U28C G29C C37G: the self-cleavage was 0.

For the variant A12U G33C A41G, the self-cleavage turned out to be 0.13.

With A12U G17C C31A U34C, the self-cleavage came to 0.01.

Consider A12U G17U C42A U43A, for which the self-cleavage was 0.01.

Consider C13A C23U G27A, for which the self-cleavage is 0.14.

Take A12U C23G A24C C45A: the self-cleavage was 0.15.

In the case of C13A C18A C23U C31G A41U, the self-cleavage was found to be 0.09.

C13A A24C C37G: the self-cleavage turned out to be 0.02.

Regarding C13A A26C C37U, the self-cleavage is 0.08.

In the case of C13A C15A C31G G44A, the self-cleavage came to 0.05.

For the variant A12U C13G C46A, the self-cleavage was 0.3.

On to A12U A26U C37A, for which the self-cleavage amounted to 0.09.

As to A12U G17A G22C A24G C37A, the self-cleavage was determined as 0.02.

Take A12U C37G G44C: the self-cleavage amounted to 0.

Consider A12U U20A A26G G27U, for which the self-cleavage amounted to 0.03.

In the case of A12U C31G C45A, the self-cleavage came to 0.04.

Take A12U A26G U32G: the self-cleavage was 0.02.

Consider A12U G22U U32A, for which the self-cleavage is 0.13.

On to C13A A25U C31A C37U U38G, for which the self-cleavage is 0.08.

Consider A12U G27C G33A G36A, for which the self-cleavage amounted to 0.08.

For the variant C13A G17A C23U A41G, the self-cleavage is 0.04.

A12U U32C U34C G36A: the self-cleavage amounted to 0.08.

Consider A12U U43C C45U, for which the self-cleavage stood at 0.01.

In the case of A12U G17A C45A, the self-cleavage was found to be 0.05.

Consider C13A C37G C42U, for which the self-cleavage stood at 0.33.

For the variant C13A A25C G44U, the self-cleavage came to 0.03.

Regarding C13A C15U C46G, the self-cleavage was 0.04.

As for C13A A14C U28G G29U, the self-cleavage is 0.01.

A12U A26U U28A C45A: the self-cleavage is 0.57.

On to A12U C13A G29U G30C, for which the self-cleavage worked out at 0.04.

With A12U G21C C37G U43A, the self-cleavage worked out at 0.03.

Consider C13A A26U C31G G33A C37G, for which the self-cleavage stood at 0.01.

In the case of A12U G19U U20C U32G C42U, the self-cleavage worked out at 0.01.

In the case of A12U G22C C23G, the self-cleavage was found to be 0.06.

Turning to A12U C13G G19U U20A U32A G40A, the self-cleavage is 0.01.

Take C13A G19U G21A: the self-cleavage turned out to be 0.21.

In the case of C13A G19A G33A C37A, the self-cleavage was found to be 0.04.

With C13A A16C U38G, the self-cleavage worked out at 0.

As to C13A A16C U38A, the self-cleavage came out at 0.23.

For the variant A12U C13U C31G G44U, the self-cleavage worked out at 0.01.
